Measurements: PMC4336329 (PLoS ONE, 2015)
The whole screen tested about 310,000 compounds, of which about 14,000 (4.5%) showed an effect of 50% or more. Effects have a minus sign here. The list shows a part of the results.

Molecular target: human ether-à-go-go-related gene (hERG) potassium channel (human, UniProt Q12809)
Test: primary screen, population patch clamp on CHO cells stably expressing hERG
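Also: peak tail current of the secondary pulse compared with the same well before compound.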

Sequence of human ether-à-go-go-related gene (hERG) potassium channel (Q12809 whole entry, looked up): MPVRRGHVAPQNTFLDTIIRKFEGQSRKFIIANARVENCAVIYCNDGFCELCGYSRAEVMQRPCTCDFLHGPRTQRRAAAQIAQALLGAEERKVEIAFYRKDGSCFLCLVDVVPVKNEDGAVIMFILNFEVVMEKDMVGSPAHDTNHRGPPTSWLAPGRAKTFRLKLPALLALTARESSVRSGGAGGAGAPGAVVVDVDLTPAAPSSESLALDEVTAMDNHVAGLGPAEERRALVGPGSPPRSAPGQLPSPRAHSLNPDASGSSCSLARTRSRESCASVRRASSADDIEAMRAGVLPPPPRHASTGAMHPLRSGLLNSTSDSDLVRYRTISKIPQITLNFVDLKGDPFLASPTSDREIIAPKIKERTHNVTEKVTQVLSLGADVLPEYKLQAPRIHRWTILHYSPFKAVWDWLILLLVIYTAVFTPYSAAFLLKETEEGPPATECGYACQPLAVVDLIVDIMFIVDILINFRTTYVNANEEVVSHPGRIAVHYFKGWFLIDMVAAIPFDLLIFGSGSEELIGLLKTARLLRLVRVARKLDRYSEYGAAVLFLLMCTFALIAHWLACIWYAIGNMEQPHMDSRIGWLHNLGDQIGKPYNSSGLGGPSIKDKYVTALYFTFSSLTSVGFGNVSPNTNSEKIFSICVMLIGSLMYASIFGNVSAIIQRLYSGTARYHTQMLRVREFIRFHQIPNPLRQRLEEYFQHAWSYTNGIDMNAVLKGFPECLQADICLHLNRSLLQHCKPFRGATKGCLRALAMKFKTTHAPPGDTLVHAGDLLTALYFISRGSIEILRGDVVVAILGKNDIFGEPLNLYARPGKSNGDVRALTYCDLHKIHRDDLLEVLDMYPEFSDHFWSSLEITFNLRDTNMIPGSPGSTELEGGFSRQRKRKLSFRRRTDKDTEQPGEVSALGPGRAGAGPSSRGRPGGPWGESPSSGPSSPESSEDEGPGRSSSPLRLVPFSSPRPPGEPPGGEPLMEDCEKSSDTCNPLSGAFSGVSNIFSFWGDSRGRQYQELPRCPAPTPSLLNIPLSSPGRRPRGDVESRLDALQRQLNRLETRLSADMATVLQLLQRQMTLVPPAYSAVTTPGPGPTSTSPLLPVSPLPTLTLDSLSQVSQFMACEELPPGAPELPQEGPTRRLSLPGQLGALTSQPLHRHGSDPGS

SMILES	hERG current change (%, negative = inhibition) at 10uM
C=Cn1cc[n+](CC(=O)c2ccc(C)cc2)c1.[Br-]	3.26%
COc1ccc(CCCc2nnc(SCc3nc4ccccc4c(=O)[nH]3)n2C)cc1C	-22.6%
O=C(Nc1ccccc1N1CCOCC1)c1ccc(Br)o1	1.26%
COc1ccc(NC(=O)COc2ccccc2Cc2ccccc2)cc1S(N)(=O)=O	3.31%
CCOC(=O)C(C(=O)N(C)Cc1ccccc1)C1CCCCC1 (stereo not shown)	-6.21%
COc1ccc(C(=O)/C=C/c2ccc(-c3ccccc3)cc2)cc1CSCC(=O)O	89%
N#CCCN1CCN(Cn2c3ccccc3c3ccccc32)CC1	-2.59%
O=C(NC(=S)NC(c1ccccc1)c1ccncc1)c1ccccc1 (stereo not shown)	-9.71%
O=C(O)c1cccnc1SCC(=O)C12CC3CC(CC(C3)C1)C2	-1.11%
O=C(Nc1ccncc1)Nc1ccc(Br)cc1Cl	12.1%
COc1ccc(/C=N/N(C)C2=NS(=O)(=O)c3ccccc32)cc1OC	12.8%
CCSc1nnc(NC(=O)CSc2nc(CC)nc3c2c(=O)n(C)c(=O)n3C)s1	10.4%
CCOc1ccc2[nH]c(=O)c(CN(CCOC)C(=O)N3CCOCC3)cc2c1	13.5%
Cc1ccccc1-n1ncc2c1CC(C)(C)CC2NC(=O)c1ccncc1 (stereo not shown)	-47.4%
COc1ccc(CNC(=O)CCSCc2cccc(F)c2)cc1	-11.2%
CCCCNC(=S)N(C)/N=C/c1ccc(OCc2ccc(C(=O)OC)cc2)c(OC)c1	11.8%
O=C1CC(N2CC=C(c3ccc(F)cc3)CC2)C(=O)N1c1ccc(F)cc1 (stereo not shown)	-13.9%
COC(=O)c1nc2n(n1)C(c1cc(OC)ccc1OC)C(C(=O)OC1CCCCC1)=C(C)N2 (stereo not shown)	11.4%
Cl.Cn1c(=O)c2c(nc(N3CCCCC3)n2CCNC2=NCCC2)n(C)c1=O	8.2%
CC(C)(CO)NCC(O)COc1ccc2c(c1)CCC2 (stereo not shown)	2.25%
CNNC(=S)Nc1cccc(C(F)(F)F)c1	7.59%
Cc1cc(NC(=O)c2ccc(F)cc2)n(-c2ccccn2)n1	4.22%

SMILES	hERG current change (%, negative = inhibition) at 10uM
CC(C)(C)OC(=O)NCCCCCNC(=O)c1nc[nH]c1C(=O)N1CCN(C(=O)OC(C)(C)C)CC1	2.67%
O=C(Nc1ccc2oc(-c3ccccc3)nc2c1)c1ccco1	0.559%
CN(Cc1ccco1)S(=O)(=O)c1nnc(NC(=O)c2ccccc2)s1	6.12%
O=C(c1sccc1Cl)N1CCN(Cc2ccc3c(c2)OCO3)CC1	-16.3%
CCOC(=O)C1=C(O)/C(=C\c2ccc(CNC(=O)C(=O)Nc3ccccc3)o2)N=C1C	-1.87%
CC(C)CN(C(=O)COC(=O)c1ccc2c(c1)OCO2)c1c(N)n(Cc2ccccc2)c(=O)[nH]c1=O	-12%
Cc1ccc(S(=O)(=O)NCCCNC(=O)N2CCOCC2)cc1	3.86%
COCCNC(=O)C1(C(F)(F)F)CC(CCCO)CCCO1 (stereo not shown)	10.9%
COCCNC(=S)N/N=C(\C)c1ccc(Cl)c(Cl)c1	5.61%
Cc1ccc(CNC(=O)C2CCCN2S(=O)(=O)c2ccc(Cl)cc2)cc1 (stereo not shown)	3.25%
CC1=C(C)/C(=N/OC(=O)c2cccc([N+](=O)[O-])c2)C=CC1=O	6.55%
NC(=S)N/N=C\c1ccc(-c2cccc(Cl)c2Cl)o1	7.08%
O=C(NCc1nnc(SCC(=O)N2CCCCCC2)o1)c1ccc(F)cc1	18.2%
O=C(CSc1nc2ccccc2s1)Nc1ccc(N2CCOCC2)c(Cl)c1	32.5%
Cc1nc2c([nH]c3ccc(Br)cc32)s1	7.93%
CC(C)(C)N(Cc1ccccc1)C(=O)COC(=O)CNS(=O)(=O)c1ccc2ccccc2c1	2.64%
CC(C)CCC(CCNCc1ccccn1)c1ccc(Cl)cc1 (stereo not shown)	-80.4%
O=C(O)c1cccc(NC(=S)NC(NC(=O)c2ccccc2[N+](=O)[O-])C(Cl)(Cl)Cl)c1 (stereo not shown)	0.625%
O=c1oc2c(CN3CCOCC3)c(O)ccc2c2c1CCC2	-0.869%
C[C@@H](NC(=O)CN1C(=O)c2ccccc2S1(=O)=O)c1ccccc1	7.92%
COc1cc(OC)cc(C(=O)N[C@H](C(=O)OCC(=O)NC(=O)NC(C)(C)C)C(C)C)c1	-5.41%
CCCCCCNS(=O)(=O)c1ccc(NC(=O)C2CCCO2)cc1 (stereo not shown)	-21.8%

SMILES	hERG current change (%, negative = inhibition) at 10uM
c1ccc(NC2=Nc3ccccc3CS2)cc1	23%
CCCCN(C)C(=O)C1CCN(Cc2ccccn2)CC1.O=C(O)C(=O)O	-4.27%
CC1C(=O)N2CCCc3cc(S(=O)(=O)Nc4ccccc4F)cc1c32 (stereo not shown)	-0.844%
Cc1cc(C)c2c(CN3CCOCC3)cc(=O)oc2c1C	-3.4%
Cc1cc(C)c(S(=O)(=O)Nc2ccc(O)cc2)cc1C	-18.3%
CC(C)[C@H](NC(=O)c1nn(Cc2ccccc2)c(=O)c2ccccc12)C(=O)O	14.5%
CCCC(CCC)=NNC(=O)CN(Cc1ccccc1)S(=O)(=O)c1ccccc1	-16.3%
O=C(CC1C(=O)NC2CCCCC2N1C(=O)c1ccc(F)cc1)Nc1ccccc1 (stereo not shown)	11.5%
COc1ccc(-c2cn3c(C)c(C(=O)Nc4ccncc4)sc3n2)cc1	-13.9%
COC1CCN(C(=O)C2CCC(=O)N(CCc3cccc(F)c3)C2)CC1 (stereo not shown)	14%
CCC(CC)NC(=O)c1cccc(Br)c1	20.2%
CCOC(=O)c1nc(C)n(-c2ccc(Cl)cc2Cl)n1	8.75%
Cc1ccc(C(=O)N2CCN(C(=O)CN3CCCC3)C2)cc1	7.45%
O=C1NC(=O)c2c(NC(=O)C3CCCO3)cccc21 (stereo not shown)	-8.43%
Cc1ccc(S(=O)(=O)NCCc2nnc3ccc(SCc4cccnc4)nn23)cc1	5.33%
Cc1ccc(N2C(=O)C3C4C=CC(CC4)C3C2=O)c([N+](=O)[O-])c1 (stereo not shown)	10.4%
COc1ccc(CNS(=O)(=O)c2ccc(C)cc2)cc1	-2.72%
N#CC(C(=O)C12CC3CC(CC(C3)C1)C2)c1nc2ccccc2[nH]1 (stereo not shown)	4.32%
Cc1cccc(N2CCN(C(=O)C3CCN(c4ncnc5c4nc4n5CCCCC4)CC3)CC2)c1C	-14.6%
CCCCCNC(=O)c1ccc2c(=O)n(CCOC)c(=O)[nH]c2c1	2.72%
CC1(C)CC(=O)C(C=NCCC2=CCCCC2)=C(O)C1	24.5%
COc1ccc2nc(SCC(=O)Nc3ccccc3C#N)[nH]c2c1	-4.87%

SMILES	hERG current change (%, negative = inhibition) at 10uM
O=C(c1cc2ccccc2[nH]1)N1CCOCC1	1.56%
[O-]/[N+](=C\c1ccc(F)cc1)c1ccccc1	8.09%
Cc1cc(S(=O)(=O)N2CCOCC2)ccc1OCC(=O)N1CCC(C)CC1	6.4%
CCOc1ccc(-c2nc(S(=O)(=O)c3ccccc3)c(N3CCC(C(N)=O)CC3)o2)cc1	-23.7%
O=C(NC(=S)Nc1ccccc1C(=O)O)c1ccc2ccccc2c1	5.25%
CN1C(=S)SC(/[N+]([O-])=C\c2ccccc2)C1(C)C (stereo not shown)	-15.4%
O=C(CSc1ccc(-c2ccccn2)nn1)Nc1ccc(F)cc1F	2.47%
CCOC(=O)c1c(S(=O)(=O)NCC(=O)Nc2ccc(F)cc2)c(C)n(C)c1C	14.5%
C=CCN1C(=O)c2ccc(C(=O)OCC(=O)N3CCN(c4ccccc4)CC3)cc2C1=O	7.02%
CCOC(=O)c1cc(S(=O)(=O)Nc2ccc(F)cc2F)cn1C	0.0232%
COc1ccc(S(=O)(=O)N(CCc2ccccc2)CC(=O)NC(C)C)cc1	-17.8%
O=C(OCC#CCSc1nnc(-c2ccncc2)o1)c1cccs1	-53.2%
O=S(=O)(c1ccc2c(c1)OCCO2)N1CCN(c2nc3ccccc3s2)CC1	6.93%
CCCCn1c(SCC(=O)O)nc2ccccc21	15.2%
CC(=O)N1CCN(C(=O)c2c(-c3ccccc3)noc2C)CC1	-1.62%
Cc1ccc(C(=O)OCC(=O)N(CC(C)C)c2c(N)n(Cc3ccccc3)c(=O)[nH]c2=O)cc1[N+](=O)[O-]	9.14%
COc1cc(NC(=O)c2c(F)cccc2F)c(Cl)cc1Cl	15.8%
COc1ccc(N(CC(=O)NCc2ccc(Cl)cc2)S(=O)(=O)c2c(C)n[nH]c2C)cc1	-57.4%
CCN(C(=O)CSc1cc(C)c2ccc(OC)cc2n1)C1CCS(=O)(=O)C1 (stereo not shown)	-11.7%
COc1ccc(S(=O)(=O)N2CCC(C(=O)Oc3cccc(C)c3)CC2)cc1OC	19.1%
COc1ccccc1C(=O)Nc1ccc2oc(-c3ccc(F)cc3)nc2c1	3.72%
OCC1(Cc2ccccc2Cl)CCN(C/C=C/c2ccccc2)CC1	-68.4%
